The list shows a part of the results. The full chains were built here from the parent and the listed change. Values near 0.05 are background.
B1: TEV protease; numbered along this chain (parent)
chain: MGESLFKGPRDYNPISSSICHLTNESDGHTTSLYGIGFGPFIITNKHLFRRNNGTLVVQSLHGVFKVKDTTTLQQHLVDGRDMIIIRMPKDFPPFPQKLKFREPQREERICLVTTNFQTKSMSSMVSDTSCTFPSGDGIFWKHWIQTKDGQCGSPLVSTRDGFIVGIHSASNFTNTNNYFTSVPKNFMELLTNQEAQQWVSGWRLNADSVLWGGHKVFMVKPEEPFQPVKEATQL

Variants of: B1
Experiment: raw area under fraction-flipped curve 0-4 h after induction (AUC4h, not background-subtracted), DNA-recorder readout of cleavage of the substrate (dimensionless); higher = more cleavage of the substrate by the protease variant
Details: temperature: 34 °C; time window: 0-4 h after rhamnose induction
Description: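 In vivo DNA recorder in E. coli TOP10(DE3) ΔrhaA at 34 °C. Each TEVp single-site mutant (parent TEVp 0) is paired with a single-site variant of the 7-mer TEVs (canonical ENLYFQ|S). The substrate sits between flexible linkers in a Bxb1-sfGFP-TEVs-SsrA fusion, so cleavage stabilises Bxb1 and speeds flipping of a recombination array, read by NGS. The value is the raw area under the fraction-flipped curve over 0-4 h after rhamnose induction (AUC4h), with ≥20 reads per time point. It is not background-subtracted; inactive controls average about 0.047.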
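Also: Bxb1 expression induced with 0.2% (w/v) L-rhamnose at OD600 near 0.5, cultures sampled hourly, flipped fraction per protease–substrate barcode pair counted by paired-end Illumina sequencing.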

Row | Variant | area with substrate ENLYFAS | area with substrate ENLYFCS | area with substrate ENLYFDS | area with substrate ENLYFES | area with substrate ENLYFFS | area with substrate ENLYFIS | area with substrate ENLYFKS | area with substrate ENLYFLS | area with substrate ENLYFMS | area with substrate ENLYFNS | area with substrate ENLYFPS | area with substrate ENLYFRS | area with substrate ENLYFTS | area with substrate ENLYFVS | area with substrate ENLYFWS | area with substrate ENLYFYS | area with substrate ENLYFHS | area with substrate ENLYFSS | area with substrate ENLYFGS
1 | MGESLFKGPRDYNPISSSICHLTNESDGHTTSLYGIGFGPFIITNKHLFRRNNGTLVVQSLHGVFKVKDTTTLQQHLVDGRDMIIIRMPKDFPPFPQKLKFREPQREERICLVTTNFQTKSMSSMVSDTSCTFPSGDGIFWKHWIQTKDGQCGSPLVSTRDGFIVGIHSASNFTNTNNYFTSVPKNFMELLTNQEAQQWVSGWRLNADSVLWGGHKVFMVKCEEPFQPVKEATQL [P222C] | 0.0603 | 0.0413 | 0.052 | 0.029 | 0.0674 | 0.059 | 0.0645 | 0.0624 | 0.0611 | 0.0579 | 0.0577 | 0.0625 | 0.0539 | 0.0606 | 0.0469 | 0.0734 | – | – | –
2 | MGESLFKGPRDYNPISSSICHLTNESDGHTTSLYGIGFGPFIITNKHLFRRNNGTLVVQSLHGVFKVKDTTTLQQHLVDGRDMIIIRMPKDFPPFPQKLKFREPQREERICLVTTNFQTKSMSSMVSDTSCTFPSGDGIFWKHWIQTKDGQCGSPLVSTRDGFIVGIHSASNFTNTNNYFTSVPKNFMELLTNQEAQQWVSGWRLNADSVLWGGHKVFMVKSEEPFQPVKEATQL [P222S] | 0.0625 | – | 0.0605 | 0.0699 | 0.0699 | 0.054 | – | – | – | – | 0.0592 | – | 0.064 | 0.035 | – | – | 0.0578 | 0.0614 | –
3 | MGESLFKGPRDYNPSSSSICHLTNESDGHTTSLYGIGFGPFIITNKHLFRRNNGTLVVQSLHGVFKVKDTTTLQQHLVDGRDMIIIRMPKDFPPFPQKLKFREPQREERICLVTTNFQTKSMSSMVSDTSCTFPSGDGIFWKHWIQTKDGQCGSPLVSTRDGFIVGIHSASNFTNTNNYFTSVPKNFMELLTNQEAQQWVSGWRLNADSVLWGGHKVFMVKPEEPFQPVKEATQL [I15S] | – | 0.0575 | 0.0561 | 0.0613 | 0.0684 | 0.0512 | 0.0567 | 0.0345 | 0.049 | 0.0613 | 0.0534 | 0.0576 | 0.0518 | 0.0553 | 0.0304 | – | 0.0461 | 0.0543 | –
4 | MGESLFKGPRDYNPISSSICHLTNESDGHTTSLYGIGFGPFIITNKHLFRRNNGTLVVQSLHGVFKVKDTTTLQQHLVDGRDMIIIRMPKDFPPFPQKLKFREPQREERICLVTTNFQTKSMSSMVSDTSCTFPSGDGIFWKHWIQTKDGQCGSPLVSTRDGFIVGIHSASNFTNTNNYFTSVPKNFMELLTNQEAQQWVSGWRLNADSVLWGGHKVFMVKPEEPFIPVKEATQL [Q227I] | 0.0593 | 0.0616 | 0.0676 | – | 0.0708 | 0.0801 | 0.0609 | – | 0.0645 | 0.0691 | 0.0653 | – | 0.0459 | – | – | – | – | – | 0.0686
5 | MGESLFKGPRSYNPISSSICHLTNESDGHTTSLYGIGFGPFIITNKHLFRRNNGTLVVQSLHGVFKVKDTTTLQQHLVDGRDMIIIRMPKDFPPFPQKLKFREPQREERICLVTTNFQTKSMSSMVSDTSCTFPSGDGIFWKHWIQTKDGQCGSPLVSTRDGFIVGIHSASNFTNTNNYFTSVPKNFMELLTNQEAQQWVSGWRLNADSVLWGGHKVFMVKPEEPFQPVKEATQL [D11S] | – | 0.0656 | 0.0678 | 0.0707 | 0.0767 | 0.0568 | 0.0588 | 0.0642 | 0.0756 | 0.0639 | 0.0592 | 0.0632 | 0.0599 | 0.0533 | 0.0588 | 0.0675 | – | 0.0735 | 0.0572
6 | MGESLFKGPRDYNPISSSICHLTNESDGHTTSLYGIGFGPFIITNKHLFRRNNGTLVVQSLHGVFKVKDTTTLQQHLVDGRDMIIIRMPKDFPPFPQKLKFREPQREERICLVTTNFQTKSMSSMVSDTSCTFPSGDGIFWKHWIQTKDGQCGSPLVSTRDGFIVGIHSASNFTNTNNYFTSVPKNFMELLTNQEAQQWVSGWRLNADSVLWGGHKVFMVKPEEPFQPVKEAGQL [T233G] | 0.05 | – | 0.044 | 0.0737 | 0.0757 | 0.0806 | 0.0652 | 0.0656 | 0.0477 | – | 0.0618 | 0.0555 | 0.0552 | – | 0.0627 | 0.0719 | 0.0393 | 0.0798 | 0.0543
7 | MGESLFKGPRDYNPISSSICHLTNESDGHTTSLYGIGFGPFIITNKHLFRRNNGTLVVQSLHGVFKVKDTTTLQQHLVDGRDMIIIRMPKDFPPFPQKLKFREPQREERICLVTTNFQTKSMSSMVSDTSCTFPSGDGIFWKHWIQTKDGQCGSPLVSTRDGFIVGIHSASNFTNTNNYFTSVPKNFMELLTNQEAQQWVSGWRLNADSVLWGGHKVFMVKPEEPFQPVKEAHQL [T233H] | 0.057 | – | 0.0506 | 0.0621 | – | 0.0578 | – | – | – | 0.0653 | 0.058 | 0.0646 | 0.0667 | – | 0.0737 | – | – | 0.0558 | –
8 | MGESLFKGPRDYNPISSSICHLTNESDGHTTSLYGIGFGPFIITNKHLFRRNNGTLVVQSLHGVFKVKDTTTLQQHLVDGRDMIIIRMPKDFPPFPQKLKFREPQREERICLVTTNFQTKSMSSMVSDTSCTFPSGDGIFWKHWIQTKDGQCGSPLVSTRDGFIVGIHSASNFTNTNNYFTSVPKNFMELLTNQEAQQWVSGWRLNADSVLWGGHKVFMVKPEEIFQPVKEATQL [P225I] | 0.0641 | 0.0565 | – | – | – | 0.0532 | – | 0.0406 | – | – | 0.0617 | – | 0.0492 | 0.0723 | – | – | 0.0576 | 0.0696 | –
9 | MGESLFKGPRDYNPISSSICHLTNESDGHTTSLYGIGFGPFIITNKHLFRRNNGTLVVQSLHGVFKVKDTTTLQQHLVDGRDMIIIRMPKDFPPFPQKLKFREPQREERICLVTTNFQTKSMSSMVSDTSCTFPSGDGIFWKHWIQTKDGQCGSPLVSTRDGFIVGIHSASNFTNTNNYFTSVPKNFMELLTNQEAQQWVSGWRLNADSVLWGGHKVFMVKPEEFFQPVKEATQL [P225F] | 0.0233 | 0.0708 | – | 0.0747 | 0.0666 | 0.0549 | – | 0.055 | 0.0683 | – | – | – | 0.0444 | – | 0.0931 | – | 0.0685 | 0.0493 | –
10 | MGESLFKGPRDYNPISSSICHLTNESDGHTTSLYGIGFGPFIITNKHLFRRNNGTLVVQSLHGVFKVKDTTTLQQHLVDGRDMIIIRMPKDFPPFPQKLKFREPQREERICLVTTNFQTKSMSSMVSDTSCTFPSGDGIFWKHWIQTKDGQCGSPLVSTRDGFIVGIHSASNFTNTNNYFTSVPKNFMELLTNQEAQQWVSGWRLNADSVLWGGHKVFMVKPTEPFQPVKEATQL [E223T] | 0.0621 | – | 0.0653 | 0.0597 | 0.0674 | 0.0612 | 0.0535 | 0.0563 | 0.0644 | 0.0715 | 0.0593 | 0.0721 | 0.0281 | 0.0435 | – | – | 0.0409 | 0.0559 | –

Reference: the supplement of paper PMC12217912
